Data taken from PubChem BioAssay AID463173 (ICCB-Longwood Screening Facility, Harvard Medical School, 2010).
Among all 52,000 compounds or so, about 4,300 (8.3%) were called active. Rule as the data show it: active = survival mostly below about 52% (no sharp cut-off); inactive = mostly above about 56%. Some of the results follow.

Tested on: DeltatarO mutant
Assay: growth inhibition of S. aureus wild type versus tarO mutant, primary screen, teichoic acid synthesis inhibitors, RN4220, OD600 (AID 463173)
Conditions: OD600, 18 h, stronger effect = lower value, screened at 18.75 µg/mL (by protocol)

| Compound | survival |
| --- | --- |
| CCCOc1cccc(C(=O)Nc2cc(-c3ccccc3)no2)c1 | inactive: 65% |
| CCc1ccc(NC(=O)CN(c2cc(C)cc(C)c2)S(=O)(=O)c2c(C)[nH]c(=O)[nH]c2=O)cc1 | inactive: 57% |
| CC(=O)c1cccc(NC(=O)CSc2nc3ccccc3nc2Cc2ccc(F)cc2)c1 | inactive: 77% |
| CC(=O)Nc1ccccc1-c1nc2ccccc2n(CC(=O)Nc2cccc(C(F)(F)F)c2)c1=O | active: 45% |
| Cc1ccc(CO)cc1Nc1ncnc2onc(-c3ccc(F)cc3)c12 | active: 46% |
| CCOc1cccc2cc(S(=O)(=O)c3ccccc3F)c(=O)oc12 | inactive: 89% |
| CS(=O)(=O)N1CCNCC1 | inactive: 75% |
| O=[N+]([O-])c1cc(-c2nc(-c3ccccc3)no2)ccc1NC1CCCCC1 | inactive: 75% |
| N#C/C(=C\Nc1ccc2c(c1)OCCO2)c1nc2ccccc2[nH]1 | inactive: 57% |
| O=C(Cc1csc2nc(-c3ccc(F)cc3)cn12)NCc1ccccc1 | inactive: 94% |
| C=Cc1ccc(Cn2c(C)c(CNCc3ccccc3C)c(C(=O)O)c2C)cc1 | inactive: 120% |
| COc1ccc(C2c3cc(OC)c(OC)cc3CC(=O)N2c2ccc(C)c(F)c2)cc1 (stereo not given) | inactive: 79% |
| CCC1Oc2ccc(Cl)cc2N(CC(=O)NCCc2ccc(Cl)cc2)C1=O (stereo not given) | inactive: 94% |
| CCCN1Cc2cccc(C(=O)Nc3cccc(C(=O)OCC)c3)c2C1=O | inactive: 88% |
| COc1ccc(/C=C/C(=O)Nc2ccc3nc(N4CCC(C)CC4)cc(C)c3c2)cc1 | active: 51% |
| COCCNc1nc(NCc2cccc(Cl)c2)c2cnn(C)c2n1 | inactive: 77% |
| COc1ccc2c(c1)cc1c(=O)n(CC(=O)NC3CC3)nc(C)n12 | inactive: 80% |
| CCN(c1ccccc1)S(=O)(=O)c1c(-c2ccc(C)cc2)csc1C(=O)OC | inactive: 108% |
| COc1ccccc1C(=O)Nc1ccc2oc(-c3cccc4c(Br)cccc34)nc2c1 | inactive: 46% |
| CCCCS(=O)Cc1ccccc1 (stereo not given) | inactive: 95% |
| O=C(Nc1cccc(F)c1)c1ccc2c(c1)N(Cc1ccccc1)C(=O)c1ccccc1S2(=O)=O | inactive: 80% |
| O=C(COc1ccc(Cl)cc1)OCc1cc(=O)n2nc(C3CC3)sc2n1 | inactive: 83% |
| COC(=O)c1ccccc1NC(=O)C1CCN(C(=O)N2CC(C)Oc3ccccc32)CC1 (stereo not given) | inactive: 61% |

| Compound | survival |
| --- | --- |
| COc1ccc(C(=O)NCC(c2ccc(N(C)C)cc2)N2CCc3ccccc32)cc1OC (stereo not given) | inactive: 64% |
| Cc1ccc(OCC(=O)Nc2ccccc2OCc2cc(=O)n3ccccc3n2)cc1C | inactive: 120% |
| COc1ccc(-c2nc3ccccc3s2)cc1NC(=O)c1ccc(F)cc1 | inactive: 137% |
| O=C(Nc1nnc(S(=O)(=O)N2CCCCC2)s1)c1ccccc1Br | inactive: 61% |
| Cc1ccc(-c2nnc(Nc3ccc(C(=O)N(C)C)cc3)c3ccccc23)cc1S(=O)(=O)N(C)C | inactive: 79% |
| O=C1OC(c2ccccc2)=C/C1=C/N1CCOCC1 | inactive: 104% |
| CCN(C(=O)CN1C(=O)COc2ccc(S(=O)(=O)N3CCOCC3)cc21)c1ccc(OC)cc1 | inactive: 88% |
| COc1ccc(F)cc1S(=O)(=O)Nc1cccc(-c2ccc(N3CCC(C)CC3)nn2)c1 | inactive: 109% |
| O=C(Cn1ncn2c(cc3ccccc32)c1=O)NCc1ccc(F)cc1 | inactive: 104% |
| Cc1ccc(-c2cc(-c3ccccc3)c(C#N)c(SCC(O)CS(=O)(=O)Cc3ccccc3)n2)cc1 (stereo not given) | inactive: 60% |
| COc1ccc(Nc2ncnc3c2nc2n3CCCCC2)cc1 | inactive: 89% |
| N#Cc1c(/N=C/N2CCCCC2)sc2c1CCCC2 | inactive: 80% |
| CCCOc1ccc(CNC(=O)c2[nH]c3cc(OC)ccc3c2Sc2ccccc2)cc1 | inactive: 83% |
| CCN1CCN(C(=S)NC)CC1 | inactive: 79% |
| CC(C)c1ccc(-c2noc(C3CCCN(S(=O)(=O)c4ccccc4)C3)n2)cc1 (stereo not given) | inactive: 80% |
| COc1cccc(-c2nnn(CCc3nn[nH]n3)n2)c1 | inactive: 84% |
| COC(=O)c1ccc(NC(=O)CSC2=NCCS2)cc1 | inactive: 89% |
| COc1ccc(C)cc1NC(=O)Nc1cccc(-c2noc(C)n2)c1 | inactive: 124% |
| CCc1ccc(NC(=O)Cn2c(=O)n(CCC(=O)NCCc3ccc(Cl)cc3)c(=O)c3ccccc32)cc1 | inactive: 73% |
| O=C(NC1CC1)C1C2C=CC3(O2)C1C(=O)N(C1CC1)C3C(=O)NC1CCCCC1 (stereo not given) | inactive: 88% |
| Cc1noc(/C=C/c2ccccc2F)c1S(=O)(=O)N1CCC(C(=O)N2CCOc3ccccc32)CC1 | inactive: 91% |
| COc1ccc(C(=O)Nc2nc(-c3nnn(-c4ccc(C(C)C)cc4)c3C)ns2)cc1 | inactive: 108% |
| COc1ccccc1CCNC(=O)C(C)Sc1nc(-c2ccccc2)cc(C(F)(F)F)n1 (stereo not given) | inactive: 65% |

| Compound | survival |
| --- | --- |
| CC(=NCCCn1ccnc1)c1c(C(F)(F)F)[nH]n(-c2nc3ccccc3s2)c1=O | inactive: 120% |
| CCOC(=O)C(Cc1c[nH]c2ccccc12)NC(=O)COc1ccc(CC)cc1 (stereo not given) | active: 33% |
| Cc1cc(NC(=O)CN2CCC(C)CC2)nc2c1c(=O)oc1ccccc12 | inactive: 102% |
| CCOC(=O)c1c(C)[nH]c(C)c1S(=O)(=O)N1CCC(C(=O)NCc2ccccc2Cl)CC1 | inactive: 109% |
| COc1ccc(C)cc1N(C)C(=O)CCc1nc(-c2ccccc2F)no1 | inactive: 45% |
| CCCCNc1oc(-c2ccc(COc3ccc(OC)cc3)o2)nc1C#N | inactive: 68% |
| Cc1ccc(Cl)cc1NC(=O)CN1C(=O)CCc2ccccc21 | inactive: 99% |
| CCOC(=O)c1cc2oc(C)cc2n1CCCN1C(=O)c2ccccc2C1=O | active: 0% |
| CC(C)NC(=O)CN1C(=O)C(C)(C)Oc2ccc(C(=O)NC(C)C)cc21 | inactive: 109% |
| COC(=O)c1ccccc1NC(=O)CCCn1c(=O)c2cccn2c2cccnc21 | inactive: 92% |
| CCc1nc(NCCCO)c2nnn(Cc3ccccc3F)c2n1 | inactive: 77% |
| CN(C)c1ccc(Nc2ncnc3sc4c(c23)CCCC4)cc1 | inactive: 106% |
| CC(=O)Nc1ccc(N(C(=O)Cn2nnc3ccccc32)C(C(=O)NCc2ccccc2)c2ccc(C)cc2)cc1 (stereo not given) | active: 38% |
| COc1ccc(CCNC(=O)c2c(C)oc3ncn(C)c(=O)c23)c(OC)c1 | inactive: 84% |
| O=C1C(c2ccc(F)cc2)N(CCc2ccccc2)C(=O)CN1C1CCCCCC1 (stereo not given) | inactive: 70% |
| Cc1ccc2[nH]c(=O)c3cc(C(=O)NCCCN4CCC(C)CC4)sc3c2c1 | inactive: 85% |
| CCN(C(=O)CSc1nc2ccccc2n1Cc1ccc(F)cc1Cl)c1ccccc1 | inactive: 77% |
| CCOc1cccc(C(=O)Nc2nc3c(s2)CC(C(C)(C)C)CC3)c1 (stereo not given) | inactive: 77% |
| COc1ccc(N(CC(=O)N2CCN(c3ccc(F)cc3)CC2)S(=O)(=O)c2c(C)noc2C)cc1 | inactive: 67% |
| CC(C)(C)c1cc(C(F)(F)F)nc(SCCCNC(=O)c2ccco2)n1 | inactive: 76% |
| CCCCN1C(=O)C(O)(CC(=O)c2ccc(C)cc2C)c2cc(Br)ccc21 (stereo not given) | active: 11% |
| O=C(NCc1ccco1)c1ccc2c(c1)N(Cc1ccc(F)cc1)C(=O)c1ccccc1S2(=O)=O | inactive: 105% |
| CC(C)COc1ccc(C(=O)Nc2cc(-c3ccccc3)no2)cc1 | inactive: 85% |

| Compound | survival |
| --- | --- |
| O=C(Cn1cnc2ccccc2c1=O)NCCC(=O)Nc1ccc(F)cc1 | inactive: 85% |
| CCc1cccc2c(C#N)cn(CCOc3ccccc3OC)c12 | inactive: 80% |
| CCCCN(CC)CCCNC(=O)Cn1ncc2c([nH]c3ccc(C)cc32)c1=O | inactive: 89% |
| Cc1c(C(=O)N2CCOCC2)oc2c1-c1nn(CC(=O)NCc3cccc(Cl)c3)cc1CC2 | inactive: 70% |
| CCCCS(=O)(=O)c1oc(-c2ccc(F)cc2)nc1S(=O)(=O)c1ccc(C)cc1 | active: 30% |
| Cn1c(=O)oc2cc(S(=O)(=O)N3CCC(C(=O)N4CCN(c5ccccc5F)CC4)CC3)ccc21 | inactive: 80% |
| COc1cc(Cl)c(C)cc1NC(=O)CC(c1ccc(F)cc1)N1Cc2ccccc2C1=O (stereo not given) | active: 0% |
| CC(C)(C)OC(=O)N1CCC(c2c(C(=O)NCCc3ccccc3)cnn2-c2ccc(F)cc2F)CC1 | inactive: 79% |
| COc1ccc(-c2c(C)c3ccc(O)c(CN4CCN(CCO)CC4)c3oc2=O)cc1OC | inactive: 68% |
| O=C(NCc1cccc(F)c1)c1ccc(NC(=O)c2nsc3ccccc23)cc1 | active: -2% |
| COc1cccc(CNC(=O)c2cc(Sc3cccc(Cl)c3)nc3ccccc23)c1 | inactive: 74% |
| Cc1ccc(/C=C/C(=O)Nc2ccccc2C(N)=O)o1 | inactive: 64% |
| COc1cc(OC)cc(-c2nc3n(n2)C(c2ccccc2)C(C(N)=O)=C(C)N3)c1 (stereo not given) | inactive: 78% |
| COc1ccccc1NC(=O)COc1ccc(-c2nn(C)c(=O)c3ccccc23)cc1 | active: 37% |
| CCOc1ccc(CNC(=O)Cn2nc(C)c3c(C)n(-c4ccc(C)cc4)nc3c2=O)cc1 | inactive: 93% |
| CC(C)C(=O)Nc1nc2c(s1)CC(C(C)(C)C)CC2 (stereo not given) | inactive: 92% |
| CC1=C(C)CC(C(=O)Nc2ccc(NC(=O)NC3CCCCC3)cc2)C(C(=O)O)C1 (stereo not given) | inactive: 81% |
| O=C(CCS(=O)(=O)c1ccccc1)N(Cc1cccnc1)c1nc2ccc(F)cc2s1 | inactive: 102% |
| CC(=O)c1ccc(-n2c(CCC(=O)O)ccc2-c2cccs2)cc1 | inactive: 65% |
| COc1ccc(-c2cnc(C)o2)cc1S(=O)(=O)Nc1ccc(OC(F)(F)F)cc1 | inactive: 74% |
| Cc1ccc(C)c(CSc2nnc(C)n3c2cc2sccc23)c1 | inactive: 80% |
